The whole screen tested about 44,000 compounds, of which about 340 (0.77%) were called active. Roughly 5% stayed inconclusive and do not appear here. Calls follow the shape of the dose curve; as a rule, active = well fitted inhibition curve with a large enough effect; inconclusive = small, poorly fitted or top-dose-only effect; inactive = flat fitted curve, though single readings scatter. Some of the results follow.
Test: Acumen qHTS Assay for Inhibitors of the mTORC1 Signaling Pathway in MEF (Tsc2-/-, p53-/-) Cells: Sytravon;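 also: plate controls were DMSO for no effect and rapamycin for full effect; nearly all actives have a fitted effect of over 50% in size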
Conditions: phospho-rpS6 immunofluorescence/PI, 24 h; series mostly up to 38.3 µM; activity change, negative = inhibition: at the top concentration
Outline: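 Readout is phospho-S6 Alexa 488 signal normalized to PI per well, reported as % active cells with thresholds set from rapamycin (7.5 nM) and DMSO controls. Cells: Tsc2-/-, p53-/- MEFs, 24 hrs compound at 37 C; PI cell number serves as viability.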

| Compound | activity change, negative = inhibition |
| --- | --- |
| O=C(Cn1c(=O)oc2cc(S(=O)(=O)NCc3ccccc3)ccc21)NCc1ccc(F)cc1 | inactive: -8.93% |
| COc1ccc(/C=C/C(=O)Nc2ccc(Cl)c(Cl)c2)cc1OC | inactive: 6.8% |
| CCOc1ccc(NC(=O)c2cc(CN3CCCC3)on2)cc1 | inactive: -5.11% |
| Cc1c(C(=O)NCc2ccc(F)cc2)sc2nc3n(c(=O)c12)CCC3 | inactive: 7.42% |
| COc1ccc(-c2ccc(=O)n(CC(=O)Nc3ccc(N(C)C)cc3)n2)cc1 | inactive: -0.277% |
| CC(=O)Nc1ccc(NC(=O)Nc2sc3nc4n(c(=O)c3c2C)CCC(C)CC4)cc1 (stereo not drawn) | inactive: 0.981% |
| O=C(Cn1nc(C(F)(F)F)c2c1CCCC2)Nc1ccc(F)c(Cl)c1 | inactive: -17.9% |
| CSc1ccc(C2c3c(oc4ccc(F)cc4c3=O)C(=O)N2c2ccc(C)cn2)cc1 (stereo not drawn) | inactive: -10.6% |
| CCOc1ccc2oc(=O)cc(CN3CCN(C(=O)c4ccc(Cl)cc4)CC3)c2c1 | inactive: 2.39% |
| CCCCc1nn2c(=O)cc(COC(=O)CNC(=O)c3ccccc3C)nc2s1 | inactive: 0.296% |
| Cc1c(NC(=O)c2cc3ccccc3o2)cccc1-c1nc2ccccc2o1 | inactive: 11% |
| COc1ccc(OC)c(NC(=O)c2ccc(-c3nc(COc4ccccc4)c(C)o3)cc2)c1 | inactive: -1.49% |
| Cc1cccc(N(C)C(=O)C2CCN(S(=O)(=O)c3cccc4nonc34)CC2)c1 | inactive: 0.196% |
| Cc1ccc2nc(Nc3ccc(Br)cc3)nc(-c3ccccc3)c2c1 | inactive: 0.379% |
| Cc1ccc(C(C)C)c(OCCSc2nc(-c3cccs3)nc3cc(=O)[nH]n23)c1 | inactive: 11.4% |
| COc1ccc(OC)c(NC(=O)Cn2cc(C(=O)c3cccs3)c3ccccc32)c1 | inactive: -1.11% |
| CCc1cccc(CC)c1NC(=O)Cc1csc(C)n1 | inactive: 1.82% |
| CCC(=O)N1CCc2cc(CNS(=O)(=O)c3ccc(Cl)s3)ccc21 | inactive: -9.08% |
| Cc1cccc(CN2C(=O)c3ccccc3Sc3ccc(C(=O)NCCc4ccccc4)cc32)c1 | inactive: -0.994% |
| Cc1cc(Nc2cccc(F)c2)n2nc(-c3ccco3)nc2n1 | inactive: 8.15% |
| Cc1ccc(C)c(N2CCN(C(=O)C3CCN(Cc4nc(-c5cccc(Cl)c5)oc4C)CC3)CC2)c1 | inactive: -1.34% |
| NC(=O)C1(N2CCCCC2)CCN(C(=O)Nc2ccc(Cl)c(Cl)c2)CC1 | inactive: -0.618% |
| COc1ccc(N2CCN(C(=O)c3cc4c(=O)n(Cc5cccs5)ccc4nc3C)CC2)cc1 | inactive: 0.0876% |
| Cc1cc(Cl)ccc1NC(=O)C1CCN(S(=O)(=O)c2ccc3[nH]c(=O)ccc3c2)CC1 | inactive: -7.71% |
| COc1cccc(NC(=O)c2sc3nc(C)c(C(=O)Nc4ccc(C)cc4C)c(-c4ccc(Br)cc4)c3c2N)c1 | inactive: -2.14% |

| Compound | activity change, negative = inhibition |
| --- | --- |
| COc1ccc(CNC(=O)c2cc3sccc3n2C)cc1 | inactive: -3.78% |
| Cc1ccc2nc(SC(Cc3cc(Cl)ccc3Cl)C(=O)O)[nH]c2c1 (stereo not drawn) | inactive: -1.14% |
| Cc1cccc(Cn2c(=O)n(CCc3ccccc3)c(=O)c3sc4ccccc4c32)c1 | inactive: 2.16% |
| Cc1ccc(CCNC(=O)CCSCc2ccccc2F)cc1 | inactive: 14.1% |
| O=C(CCOc1ccccc1)N(Cc1cccnc1)c1nc2c(Cl)cccc2s1 | inactive: -5.47% |
| CCOC(=O)c1cc(-c2ccccc2)nn1Cc1ccccc1 | inactive: -8.04% |
| Cc1ccc(C2c3[nH]c4ccccc4c3CCN2C(=O)c2ccc(N(C)C)cc2)cc1 (stereo not drawn) | inactive: -7.27% |
| Cc1ccc2oc(C(=O)Nc3c(C(=O)c4ccc(C)c(F)c4)oc4ccccc34)cc(=O)c2c1 | inactive: 2.11% |
| O=S(=O)(Nc1c(F)cccc1F)c1ccc2c(c1)OCCO2 | inactive: -9.93% |
| CCOC(=O)N1CCc2c(sc3c2c(=O)n(Cc2ccccc2)c(=O)n3CC(=O)Nc2ccccc2F)C1 | inactive: 3.56% |
| COc1ccc(C)cc1NC(=O)C(CCSC)NS(=O)(=O)c1ccc2c(c1)oc(=O)n2C (stereo not drawn) | inactive: -18.1% |
| CCn1nnc2cc(C(=O)Nc3cccc(C(F)(F)F)c3)ccc21 | inactive: 4.03% |
| CC(C)NC(=O)c1cnc2sc(N3CCCCCC3)nn2c1=O | inactive: 0% |
| COc1ccc(CN(C(=O)Nc2ccccc2)c2ccccn2)cc1OC | inactive: -10.3% |
| Cc1ccc(S(=O)(=O)N(Cc2nc(-c3ccc(Cl)cc3)no2)C2CCCCC2)cc1 | inactive: -1.56% |
| COc1ccc(-c2noc(-c3ccc(N4CCOCC4)c([N+](=O)[O-])c3)n2)cc1OC | inactive: 3.58% |
| CCOCCCNC(=O)N1CCN(S(=O)(=O)c2ccc3c(ccn3C)c2)CC1 | inactive: -7.67% |
| COc1ccccc1N1CCN(CCC(=O)Nc2cccc(F)c2)CC1 | inactive: 0.857% |
| Cn1c(=O)c2c(SCC(=O)NCC3CCCO3)nc(-c3ccccc3F)nc2n(C)c1=O (stereo not drawn) | inactive: 1.57% |
| CCOC(=O)c1ccc(NS(=O)(=O)c2cc3c(cc2C)n(C)c(=O)c(=O)n3C)cc1 | inactive: -2.58% |
| CCOc1ccc(CNC(=O)c2cnc(SC)nc2CC)cc1 | inactive: 0.26% |
| CCOc1ccc(NC(=O)CSc2oc(-c3cccs3)nc2S(=O)(=O)c2ccc(Cl)cc2)cc1 | inactive: -1.61% |
| O=C(Cn1c(=O)n(-c2ccccc2)c(=O)c2ccc(C(=O)NCc3ccc4c(c3)OCO4)cc21)Nc1ccc(Br)cc1F | inactive: -5.87% |
| COc1ccc(CNc2nc(-c3ccc(OC)c(OC)c3)cc(C(F)(F)F)n2)cc1 | inactive: -15.5% |
| CCCCSCCCNC(=O)CN1C(=O)COc2ccc(S(=O)(=O)N3CCCC3)cc21 | inactive: -7.73% |

| Compound | activity change, negative = inhibition |
| --- | --- |
| Cc1cc(NC(=O)c2ccc(Cl)c(Cl)c2)ccc1-c1cc2ccccc2oc1=O | inactive: 1.38% |
| CCCSc1ncc(Cl)c(C(=O)Nc2ccc(CC)cc2)n1 | inactive: -6.59% |
| CC1(C)C(=O)N(CC(=O)Nc2ccc(OC(F)(F)F)cc2)c2ccccc21 | inactive: 0% |
| Cc1ccc(CNC(=O)CSc2nc3ccsc3c(=O)n2-c2ccc(C(=O)O)cc2)cc1 | inactive: 1.38% |
| O=C(CSC1=Nc2ccccc2C2=NC(CCC(=O)NC3CCCCC3)C(=O)N12)Nc1cccc(Cl)c1 (stereo not drawn) | inactive: 2.59% |
| CCOC(=O)C1CCC(CN(Cc2c(Cl)cccc2Cl)S(=O)(=O)c2ccc(F)c(C)c2)CC1 (stereo not drawn) | inactive: -8.96% |
| COc1cccc(NC(=O)CCNS(=O)(=O)c2ccc3c(c2)CCCC(=O)N3)c1 | inactive: -7.68% |
| CCOC(=O)c1c(C)[nH]c(C)c1S(=O)(=O)N(C)CC(=O)Nc1cc(Cl)ccc1OC | inactive: 3.29% |
| Cc1cccc(NC(=O)c2ccc(F)c(S(=O)(=O)N(C)C3CCCCC3)c2)c1 | inactive: 5.27% |
| CCOc1ccc(C(=O)N2CCN(Cc3cc(=O)n4nc(-c5cccc(OC)c5)sc4n3)CC2)cc1 | inactive: 6.24% |
| CC(=O)Nc1ccc(Nc2nc3ccc(C)cc3n3nnnc23)cc1 | inactive: -3.32% |
| COc1ccc(NC(=O)C(C)n2nc(C)c3c(C)n(-c4ccccc4)nc3c2=O)cc1Cl (stereo not drawn) | inactive: -7.43% |
| CCOCCCNC(=O)C(c1ccc(Cl)cc1)N(Cc1ccc2c(c1)OCO2)C(=O)c1ccccc1O (stereo not drawn) | inactive: 16.7% |
| COc1ccc(-c2nc(S(=O)(=O)c3ccccc3)c(N3CCCCC3)o2)cc1 | inactive: -13.1% |
| CCN(Cc1nc(-c2ccc(OC)cc2)oc1C)S(=O)(=O)c1ccc(Cl)cc1 | inactive: 0% |
| Cc1ccc(C)c(OCCCn2c(-c3ccc(Cl)cc3)nc3ccccc3c2=O)c1 | inactive: -0.535% |
| COc1ccc(N2CCN(C(=O)c3cccn4c(=O)c5ccc(Cl)cc5nc34)CC2)cc1 | inactive: -7.82% |
| Cc1ccc2oc(=O)c3cnn(CC(=O)Nc4ccc(Br)cc4C)c3c2c1 | inactive: 4.86% |
| CCc1cccc(C)c1NC(=O)COCc1cc(-c2ccc3c(c2)OCO3)on1 | inactive: -0.597% |
| Cc1cc(C)c(Cn2c(C)c(CNCc3ccccc3C)c(C(=O)O)c2C)c(C)c1 | inactive: 7.33% |
| CCc1ccccc1NC(=O)C(=O)c1cc(C)n(-c2ccccc2F)c1C | inactive: 0% |
| O=C(c1ccco1)N(Cc1cccnc1)c1nc2c(F)cccc2s1 | inactive: -10.4% |
| CC1CCCCN1C(=O)CSc1nc2ccccc2nc1Cc1ccc(Cl)cc1 (stereo not drawn) | inactive: 0.934% |
| COc1cc(OC)cc(-c2nc3nc(C)c(CCC(=O)Nc4ccc(C)cc4)c(C)n3n2)c1 | inactive: -5.95% |
| Nc1c(C(=O)Nc2ccccc2Cl)nnn1Cc1cccc(Cl)c1 | inactive: 0.289% |

| Compound | activity change, negative = inhibition |
| --- | --- |
| Cc1ccc(NCc2nc3ccccc3n2CCOc2ccccc2C)cc1 | inactive: -11.4% |
| COC(=O)c1cc(NC(=O)c2cnc(SC)nc2-c2ccccc2)cc(C(=O)OC)c1 | inactive: -1.13% |
| Cc1c(CCNS(=O)(=O)c2ccccc2)sc2nc(-c3ccc(Cl)cc3)nn12 | inactive: -12% |
| CCNc1nc2c(c(=O)n(C)c(=O)n2C)n1CC(O)COc1ccccc1 (stereo not drawn) | inactive: -3.29% |
| COc1ccc(NC(=O)Nc2cccc(C)n2)c(OC)c1 | inactive: 5.12% |
| Cc1c2cnn(CC(=O)O)c(=O)c2c(C)n1Cc1cccc(Cl)c1 | inactive: 1.61% |
| O=C(CC1N=C2c3ccccc3N=C(SCc3ccc(Cl)cc3)N2C1=O)NC1CCCCC1 (stereo not drawn) | inactive: 1.05% |
| Cc1cc2c(cc1S(=O)(=O)CCC(=O)Nc1ccc(OC(F)(F)F)cc1)OCC(=O)N2 | inactive: 7.08% |
| CCOc1ccc2cc(-c3nnc(Nc4ccccc4F)s3)c(=O)oc2c1 | inactive: 21% |
| Cc1ccc(CNC(=O)COCc2cc(-c3ccc4c(c3)OCO4)on2)cc1 | inactive: -6.96% |
| O=C(NCc1cccc(Br)c1)c1ccc(-n2cnc3cccnc32)cc1 | inactive: -7.24% |
| Cc1ccc(-n2ncc3c(N4CCC(C)CC4)ncnc32)cc1C | inactive: 11% |
| COc1ccc(C(C(=O)NCc2ccccc2)N(C(=O)Cn2nnc3ccccc32)c2ccc(F)cc2)cc1 (stereo not drawn) | inactive: -3.62% |
| COc1ccc(NCc2nc3ccccc3n2CCOc2ccc(C)cc2)cc1 | inactive: -15.3% |
| Cc1ccc(Cl)cc1N1CCN(C(=O)c2cn(C)c3ccc(S(=O)(=O)N4CCC(C)CC4)cc3c2=O)CC1 | inactive: -3.15% |
| O=C(NCC(c1ccc(Cl)cc1)N1CCCCC1)c1ccccc1 (stereo not drawn) | inactive: 1.29% |
| CCCOc1ccc(C(=O)N(Cc2cccs2)C2CCS(=O)(=O)C2)cc1 (stereo not drawn) | inactive: -3.16% |
| O=C(NCc1noc2ccccc12)Nc1ccc(F)cc1F | inactive: -1.71% |
| CCOC(=O)c1nc(Nc2ccccc2C)c2ccccc2n1 | inactive: 6.13% |
| CCOc1cccc(C2c3[nH]c4ccccc4c3CCN2C(=O)CCc2ccccc2)c1 (stereo not drawn) | inactive: 0.0362% |
| CCN(CC)S(=O)(=O)c1ccc2nc(NC(=O)c3ccc(Br)o3)sc2c1 | inactive: -12.9% |
| O=C(Nc1nc2ccc(Cl)cc2s1)c1ccc(S(=O)(=O)N2CCCC2)cc1 | inactive: 6.66% |
| CCN(CC)c1ccc(C(=O)N2CCC(c3ccncc3)CC2)cc1 | inactive: -8.36% |
